Here are results for 89 molecules from ChEMBL document CHEMBL1157539, “Thousands of chemical starting points for antimalarial lead identification” (Nature, 2010).

Whole data set: some 13,000 compounds, median “IFI” near 4, cut for the highest 2% near 17. Some of the results follow.

This experiment can be described thus: GSK_TCMDC: Inhibition Frequency Index (IFI). The number of non-kinase HTS assays where a compound showed > 50 % inhibition, expressed as a percentage of the number of such assays in which the compound was tested (-0 is zero). It is filed as functional.
In turn, `O=C(C=Cc1ccc(-c2ccccc2)cc1)N1CCC(CCN2CCC(c3c[nH]c4ccccc34)CC2)CC1` came in with an IFI of 7.91%. The value for `CCC1CN(CCCn2c3ccccc3c3ccccc32)C(CC)CN1` (centres undefined) was 8.21%; that for `Cc1cc2ccc(/C=C/C(=O)NC3CCC(CCN4CCc5ccc(C#N)cc5CC4)CC3)cc2[nH]1` (centres undefined) was 1.52%; that for `Cc1ccc(S(=O)(=O)N(CCCN2CCN(C)CC2)Cc2csc(-c3ccc(CNCc4ccccc4)cc3)n2)cc1` was 4.93%.

`CC(=O)CCc1ccc(OCCN(Cc2ccccc2C(F)(F)F)c2ccc(C#N)c(C(F)(F)F)c2)cc1`: the IFI was found to be 1.42%. The value for `O=C(CSc1nn(-c2ccccc2)c(=S)s1)c1c[nH]c2ccccc12` was 0%; that for `CO/C(=C\C=C\c1cc2cc(Cl)c(Cl)cc2[nH]1)C(=O)NC1CC(C)N(C)C(C)C1` (centres undefined) was 11.8%. The value for `NC(=O)c1ccc(C(=O)Nc2cccc(-c3csc(-c4nc5ccccc5[nH]4)c3)c2)cc1` was 0%; that for `COc1cc(C(=O)N2C(c3nccs3)C(C(=O)N(OC)C(C)c3ccccc3)CC2(CC(C)C)C(=O)OC(C)(C)C)ccc1C(C)(C)C` (centres undefined) was 2.88%. The value for `COc1cc(Cc2cnc(N)nc2N)cc(OCCCc2cc(OCc3ccccc3)no2)c1OC` was 2.9%. Take `CCOc1ccc(-c2nc(NC(=O)Cc3cccc(OC)c3)sc2C)cc1`: the IFI was determined as 1.42%.

As for `Cc1[nH]c(C)c(-c2ccc(OCc3cccc(C(F)(F)F)c3)nc2)c(=O)c1Br`, the IFI was determined as 13.8%.

`CCOC(=O)C(CO)NC(=O)c1ccc([N+](=O)[O-])o1` (centres undefined) displayed an IFI of 1.41%. In turn, `COc1ccc(C2CC(c3cccs3)=NN2C(=O)CNc2ccccc2F)cc1OC` (centres undefined) showed an IFI of 0%.

For the molecule `O=C(c1cccc(-c2noc(C(F)(F)F)n2)c1)N1CCN(c2ccncc2)CC1`, the IFI was -0%.

The molecule `O=C(/C=C/c1ccc(Cl)c(Cl)c1)NCCCCCN1CCCC(CNS(=O)(=O)c2cccc(C(F)(F)F)c2)C1` (centres undefined) came in with an IFI of 15.7%. `OC1CCCN(Cc2ccc(-c3ccc(-c4nc5cc(F)ccc5[nH]4)s3)cc2)C1` (centres undefined) displayed an IFI of 2.82%.

As for `Cc1cccc2nc(-c3cccc(-c4cccc(CNCCNC(=O)c5ccnn5C)c4)c3)[nH]c12`, the IFI came out at 4.95%. The value for `COc1ccc(CCNc2ccnc3cc(Cl)ccc23)cc1OC` was 5.93%. The value for `Cc1cc(Nc2ccc(C)c(Cl)c2)n2nc(C(F)(F)F)nc2n1` was -0%; that for `COCC(=O)Nc1nc2ccccc2[nH]1` was -0%; that for `Cc1nc2ccc3ccc(CNc4ccc5c(c4)CN([C@H](CCC(=O)O)C(=O)O)C5=O)cc3c2c(=O)[nH]1` was 1.52%. With `COc1ccc(C(=O)N2CCc3cc4nccc(N5CCN6CCC[C@H]6C5)c4cc32)cc1`, the IFI was 5.04%. The value for `O=c1nc(NCCCNCc2cc3c(Cl)cc(Cl)cc3[nH]2)[nH]c2ccccc12` was 8.63%; that for `O=C(/C=C/c1ccc(Cl)c(Cl)c1)NC1CCN(CCCNC(=O)c2cccc(Cl)c2)CC1` was 9.87%.

Molecule `CCNc1cc(C(=O)N[C@@H](Cc2ccccc2)[C@H](O)CNC(CC)c2cccc(Cl)c2)cc(N2CCCC2=O)c1` (some centres undefined) registered an IFI of 5.07%.

Molecule `CNC(=N)c1ccc(NC(=O)c2ccc(C(=O)Nc3ccc(C(=N)NC)cc3)cc2)cc1` returned an IFI of 2.96%.

`CCCc1c(C(=O)OCC)c2cc(O)ccc2n1-c1ccc(OC)cc1` returned an IFI of 1.67%. The value for `O=C(Nc1ccc(-c2ccccc2)cc1)Nc1cccc(Cn2nc(Cl)c(N3CCCNCC3)cc2=O)c1` was 6.94%. In the case of `N#Cc1ccc(N/C(=N\c2cccc(Cl)c2Cl)NC2Cc3ccccc3C2)c(O)c1`, the IFI stood at 6.47%. The molecule `COc1ccccc1N(C)CCNc1cc(C)nc(Nc2ccccc2)n1` came in with an IFI of 9.52%. Take `O=C(Cn1c(CCc2cccc(F)c2F)nc(=O)c2ccccc21)N(Cc1ccc(-c2ccc(C(F)(F)F)cc2)cc1)C1CCN(C2CCOCC2)CC1`: the IFI was 12.1%. The value for `CC(=NNc1nc2ccccc2s1)c1ccccn1` was 14.4%; that for `CCN(CC)CCCN(C(=O)Nc1ccc(C#N)cc1)c1nc(-c2ccc(F)cc2)cs1` was 7.23%. `O=C(O)CCSSc1cccc[n+]1[O-]` yielded an IFI of 12.3%. The value for `CC1CCCCC1N(C)C1CCN(CCCNC(=O)C=Cc2cccc(C(F)(F)F)c2)CC1` (centres undefined) was 7.44%. The value for `CS(=O)(=O)c1cccc(-c2cnc(N)c3cc(-c4cccc(F)c4)ccc23)c1` was 5.38%; that for `CN1CCC(N2CCN(Cc3ccc(-c4cccc(-c5nc6ccccc6[nH]5)c4)cc3)CC2)CC1` was 7.04%; that for `Cc1cc(N[C@@H](Cc2ccccc2)C(=O)Nc2ccccc2)nc(NCC2CCCCC2)n1` was 11.6%. Regarding `CC1CCCN(S(=O)(=O)c2cc(Br)cc3c2N(C(=O)C2CC2)CC3)C1` (centres undefined), the IFI was found to be 1.99%. The value for `O=C(/C=C/c1ccc(Cl)c(Cl)c1)NCCCCCCN1CCCN(C(=O)Nc2ccc(F)c(Cl)c2)CC1` was 7.32%. The value for `CC(C)c1sc(-c2ccc(C(C)(C)C)cc2)nc1C(=O)NCCCN1CCCC1=O` was 1.67%; that for `CCOc1cc(C(=O)NCCc2ccc(Cl)c(Cl)c2)ccc1-c1nc2cc(Cl)ccc2[nH]1` was 1.43%.

For `O=C(/C=C/c1ccc(Cl)c(Cl)c1)NCCCCCCN1CCCN(C(=O)Nc2ccc(F)c(F)c2)CC1`, the IFI is 6.5%. The value for `C=CCOc1ccc(C2C(C(=O)OC)=C(C)NC3=C2C(=O)c2ccccc23)cc1OC` (centres undefined) was 4.4%; that for `Cc1cccc2nc(-c3cccc(-c4cccc(NC(=O)c5cccnc5Cl)c4)c3)[nH]c12` was 4.63%.

With `O=C(NC(c1ccccc1)c1ccc2cccnc2c1O)c1ccccc1` (centres undefined), the IFI was determined as 9.03%. Turning to `Brc1ccsc1-c1nc(NCCC(c2ccccc2)c2ccccc2)no1`, the IFI was 10.6%.

Regarding `COc1ccc2nc(C)cc(N/N=C/c3ccc([N+](=O)[O-])cc3)c2c1`, the IFI is 2.11%. The value for `CCc1c[nH]c2c(N3CCCC3=O)cc(C(=O)N[C@@H](Cc3ccccc3)[C@H](O)CNC(C)(C)CCCC(C)C)cc12` was 6.62%. The value for `Cc1ccc(NC(=O)N2CCN(CCCCCNC(=O)/C=C/c3ccc(Cl)c(Cl)c3)CC2)cc1C` was 4.05%; that for `CC(C)(CNC(=O)C1CCN(CC2CCCCC2)CC1)c1nc(-c2ccc(Cl)c(O)c2)c(-c2ccncc2)[nH]1` was 0.74%. `O=C(Nc1ccc(N2CCN(Cc3c[nH]c4cc(F)ccc34)CC2)cc1)c1ccccc1-c1ccc(C(F)(F)F)cc1` displayed an IFI of 7.83%. With `CN1CCc2ccc(NC(=O)Nc3cccc(C(=O)c4ccccc4)c3)cc2C1`, the IFI is -0%. Molecule `O=S(=O)(Nc1cc2c(cc1O)CCN(C1CCC1)CC2)c1ccc(-c2ccc(F)cc2)cc1` returned an IFI of 0%. The value for `O=C(c1cccs1)N(Cc1cccc(-c2ccc(CNCCc3ccccc3)cc2)c1)C1CCN(Cc2ccccc2)CC1` was 7.86%. The value for `O=C(Nc1ccc(F)cc1)NC1CCN(c2ccnc3cc(Cl)ccc23)C1` (centres undefined) was 0%; that for `N=C(N)c1ccc(NN=Cc2ccc(Oc3ccc(C(=N)N)cc3)cc2)cc1` was 6.29%; that for `COc1ccc(-c2cnc3ccc(NC4CCC(O)CC4)nn23)cn1` (centres undefined) was 5.3%. The value for `COc1cccc2cc(C(=O)N[C@@H](CC(C)C)C(=O)N[C@H](C=NN3CCOC3=O)CC(C)C)oc12` was 3.51%; that for `O=C(Nc1ccc(OC2CCN(Cc3ccc(F)cc3)CC2)c(Cl)c1)c1ccco1` was 1.61%; that for `Cc1ccccc1C1CCN(C2CCC(NC(=O)/C=C/c3ccc(F)cc3)CC2)CC1` (centres undefined) was 6.67%. On to `Cc1[nH]c(C)c(-c2ccc(-c3ccc(C(F)F)cc3)nc2)c(=O)c1Cl`, for which the IFI was -0%. `O=C(NCc1ccc(Cl)cc1)c1ccc(CN2CCCN(Cc3cccc(O)c3)CC2)cc1` registered an IFI of 8.13%. The value for `Cc1cc(N2CCC(NS(=O)(=O)c3ccccc3)CC2)nc(Nc2cccc(C#N)c2)n1` was 5.88%; that for `N#CC(NC(=O)C=Cc1ccccc1)c1ccccc1` (centres undefined) was 0.72%; that for `CC1CN(Cc2cccc(C#N)c2)CCN1c1ccc(NC(=O)c2cccs2)cc1` (centres undefined) was 5%. The value for `CC(C)(CNCc1ccc(F)c(F)c1)c1nc(-c2ccnc(N)n2)c(-c2ccc(Cl)c(O)c2)[nH]1` was 5.63%.

Consider `Cc1cnc(Nc2ccccc2)nc1NCCC(=O)Nc1ccccc1`, for which the IFI is -0%.

Regarding `CCCCCN1CCCCC(NS(=O)(=O)c2ccc(C(=O)Nc3cccc(C(F)(F)F)c3)cc2)C1` (centres undefined), the IFI was 3.06%. In turn, `CN(C)CCC1CCN(CCS(=O)(=O)c2cccc(Nc3ccc(-c4cccc(F)c4)cn3)c2)CC1` showed an IFI of 14.8%. In the case of `O=C(Cc1cccs1)NCC(c1ccccc1Cl)c1c[nH]c2ccccc12` (centres undefined), the IFI was determined as 1.82%.

In the case of `COc1ccc(C2CC(=O)C3=C(C2)NC(C)=C(C(=O)OC(C)C)C3c2cccc(O)c2)cc1OC` (centres undefined), the IFI is -0%. Consider `CC(C)CNC(=O)c1ccnc(-c2ccc(CNCCCc3ccccc3)cc2)c1`, for which the IFI is 3.28%. The value for `O=C(c1ccc(Cl)cc1)N1CCCC(C(=O)N(Cc2nnc(-c3ccccc3Cl)o2)C2CC2)C1` (centres undefined) was 2.47%; that for `CC(C)N1CCN(C(CN2CCN(CCCOc3ccc4ccccc4c3)CC2)c2ccc(F)cc2)CC1` (centres undefined) was 9.85%.

Regarding `C=CCOC(=O)N1CCC(CNCc2ccc(-c3ccc(-c4nc5cc(C(F)(F)F)ccc5[nH]4)cc3)cc2)C1` (centres undefined), the IFI is 9%.

On to `CC1CC(NCCCNc2cc(=O)c3ccccc3[nH]2)c2c(Cl)c(Cl)cc(Cl)c21` (centres undefined), for which the IFI came to 6.38%.

Molecule `CCCCCCN1CCCN(Cc2ccc(C(=O)Nc3ccc(CC)cc3)cc2)CC1` yielded an IFI of 13.5%. For `CN(C)c1ccc(CN2CCC(NC(=O)c3ccc(-c4cccc(C(F)(F)F)c4)s3)CC2)cc1`, the IFI turned out to be 17.2%. The value for `O=C(Nc1cccc(CN2CCN(Cc3ccc(O)cc3)CC2)c1)c1cccc(C(F)(F)F)c1` was 4.1%; that for `O=C(O)C[C@H](NC(=O)CCCNC(=O)c1cccc(-c2ccc(Cl)c(Cl)c2)c1)C(=O)O` was -0%; that for `COc1ccc(NC(=O)Nc2ccc(-c3ccc(-c4nc5cccc(C)c5[nH]4)s3)cc2)cc1` was 2%. The molecule `Cc1cnc(NCCc2ccc(F)cc2)nc1N[C@@H](CC(C)C)C(=O)Nc1ccccc1` registered an IFI of 9.76%.

As for `Cc1[nH]c(C)c(-c2ccc(-c3ccc(OC(F)(F)F)cc3)nc2)c(=O)c1Br`, the IFI came out at 0.92%.

As for `COc1ccc(NC(=O)NCC2CCCN(CCCCCNC(=O)/C=C/c3ccc(Cl)c(Cl)c3)C2)c(OC)c1` (centres undefined), the IFI was 4.29%. The value for `O=C(Nc1ccc(-c2csc3nccn23)cc1)c1ccc(Cl)cc1` was 9.8%.

For the molecule `CCc1ccccc1OCCCON1C(=N)N=C(N)NC1(C)C`, the IFI amounted to 4.93%. The value for `Cn1nc(-c2ccc(Cl)cc2)c2cc(C(=O)NCCN3CCOCC3)sc21` was 1.92%.
